Measurements as given in publication PMC4336329 (PLoS ONE, 2015).
Among all 310,000 compounds or so, about 2,200 (0.71%) showed an effect of 50% or more. Effects have a minus sign here. The list shows a part of the results.

These molecules were tested against human ether-à-go-go-related gene (hERG) potassium channel (human, UniProt Q12809) (assay: primary screen, population patch clamp on CHO cells stably expressing hERG).
Chain of human ether-à-go-go-related gene (hERG) potassium channel (Q12809 whole entry, looked up): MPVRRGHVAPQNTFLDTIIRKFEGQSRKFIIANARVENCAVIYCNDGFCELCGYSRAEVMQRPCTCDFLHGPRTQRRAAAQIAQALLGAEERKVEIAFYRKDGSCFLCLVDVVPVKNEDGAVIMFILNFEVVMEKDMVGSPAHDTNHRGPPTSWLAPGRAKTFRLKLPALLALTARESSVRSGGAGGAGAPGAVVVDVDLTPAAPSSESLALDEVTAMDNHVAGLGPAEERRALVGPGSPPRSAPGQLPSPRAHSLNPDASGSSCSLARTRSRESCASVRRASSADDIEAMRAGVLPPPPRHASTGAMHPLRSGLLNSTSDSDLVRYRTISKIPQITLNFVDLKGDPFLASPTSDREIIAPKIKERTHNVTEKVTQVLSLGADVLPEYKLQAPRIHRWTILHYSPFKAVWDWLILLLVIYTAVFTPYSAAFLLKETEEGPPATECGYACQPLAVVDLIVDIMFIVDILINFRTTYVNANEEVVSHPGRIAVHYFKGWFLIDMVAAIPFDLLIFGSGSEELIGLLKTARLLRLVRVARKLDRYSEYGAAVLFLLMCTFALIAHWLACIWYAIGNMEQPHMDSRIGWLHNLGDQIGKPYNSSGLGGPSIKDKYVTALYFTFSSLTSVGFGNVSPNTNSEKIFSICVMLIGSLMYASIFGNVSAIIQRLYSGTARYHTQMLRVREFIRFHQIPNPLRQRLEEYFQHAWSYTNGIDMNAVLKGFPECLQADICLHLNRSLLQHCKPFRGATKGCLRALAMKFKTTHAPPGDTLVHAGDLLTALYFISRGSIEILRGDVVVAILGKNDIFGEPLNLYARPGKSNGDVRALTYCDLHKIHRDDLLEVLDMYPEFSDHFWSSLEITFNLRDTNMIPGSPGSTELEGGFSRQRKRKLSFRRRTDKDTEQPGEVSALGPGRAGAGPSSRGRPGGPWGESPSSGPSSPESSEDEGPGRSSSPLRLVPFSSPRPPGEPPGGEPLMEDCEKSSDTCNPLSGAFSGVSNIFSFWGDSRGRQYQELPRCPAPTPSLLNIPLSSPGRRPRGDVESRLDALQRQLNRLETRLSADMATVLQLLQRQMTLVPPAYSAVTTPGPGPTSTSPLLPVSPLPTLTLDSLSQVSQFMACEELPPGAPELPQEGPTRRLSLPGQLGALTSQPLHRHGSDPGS

Row | SMILES | hERG current change (%, negative = inhibition) at 1uM
1 | O=C(O)C(=O)O.c1ccc(CNC23CC4CC(CC(C4)C2)C3)nc1 | 10.9%
2 | COc1ccc(NS(=O)(=O)c2ccc(-c3n[nH]c(=S)n3Cc3ccccc3)cc2)cc1 | 1.4%
3 | CC(C)N(C(=O)CSc1ccc(S(=O)(=O)N2CCCCC2)cn1)C(C)C | -4.54%
4 | COCCn1c(-c2ccccc2)nc2c(c(=O)c3ccccc3n2C)c1=O | 13.1%
5 | Nc1nonc1/C(=N/O)N1CCCC1 | 5.17%
6 | CC(NC(=O)CCNC(=O)c1ccc(Br)cc1)c1ccc(-n2ccnc2)cc1 (centres unmarked) | -12.6%
7 | COC(=O)C1=C(c2ccc(C(C)=O)cc2)C[C@@H]2CC[C@H]1N2C(=O)NCCOc1ccccc1Cl | -0.289%
8 | Cc1ccc(S(=O)(=O)N2CCCC2CNC(=O)c2ccc(F)c(F)c2)cc1 (centres unmarked) | 7.11%
9 | O=C(Cc1ccccc1)Nc1ccccc1CO | 10.6%
10 | Cc1cc(C)n2c(Br)c(CSc3nc4ccccc4o3)nc2n1 | -53%
11 | CC(=O)OC(Cn1ccnc1)c1ccccc1.Cl (centres unmarked) | 3.91%
12 | CCCCn1c(=O)c(C(=O)N/N=C/c2ccc(F)cc2)c(O)c2ccccc21 | 10.4%
13 | Nc1nnc(SCC(=O)N2CCc3ccccc32)n1-c1ccccc1 | 12.1%
14 | COc1ccccc1NC(=O)CSC1CC(=O)N(c2ccc3c(c2)OCO3)C1=O (centres unmarked) | 3.61%
15 | COc1ccc([C@H]2/C=C\CN(S(=O)(=O)c3ccc4ccccc4c3)[C@@H](C)C(=O)N2Cc2ccc(F)cc2)cc1 | 6.58%
16 | Cc1cccc(NC2(C(F)(F)F)N=C(c3ccccc3)NC2=O)n1 (centres unmarked) | 6.15%
17 | CCCC(=O)NC(=S)Nc1cc(-c2nc3ncccc3o2)ccc1C | 8.65%
18 | c1ccc2c(c1)Cc1ccccc1O2 | 16.2%
19 | COCCCNC(=O)CC(NS(=O)(=O)c1ccc(Cl)cc1)c1ccco1 (centres unmarked) | 6.62%
20 | CCOc1ccc(-n2c(SCC)nc3c(c2=O)SCC3)cc1 | 8.71%
21 | COc1ccc(CN(C)CC(=O)Nc2cccc3ccccc23)cc1F | 9.27%
22 | O=C1Nc2cc(Cl)c(Cl)cc2N(O)N1c1cc(Cl)cc(Cl)c1 | 17.7%

Row | SMILES | hERG current change (%, negative = inhibition) at 1uM
23 | CC(C)c1ccc(NC(=O)COC(=O)[C@H](CCC(N)=O)NC(=O)c2ccc(F)cc2)cc1 | -6.65%
24 | COc1ccc(S(=O)(=O)N2CCC(C(=O)NCC3CCCO3)CC2)cc1OC (centres unmarked) | 16.8%
25 | Cc1nc(NC(=O)CSc2nnc(C3CC3)n2C)sc1C(=O)N(C)C | 19.1%
26 | N#CCCN(Cc1ccccc1)C(=O)Nc1ccc(F)cc1 | 22%
27 | CCOC(=O)c1c(C)[nH]c(C(=O)OCC(=O)NC(C)C)c1C | -7.3%
28 | COc1ccc(/C=C/C(=O)NCCNC(=O)c2ccccc2)cc1OC | 4.49%
29 | O=S(=O)(Nc1cccc2c1CCCC2)c1cccc(C(F)(F)F)c1 | 8.01%
30 | COC(=O)c1ccc(OCC(=O)c2ccc(O)cc2O)cc1 | 1.47%
31 | NC(CSCc1cccc(Br)c1)C(=O)O (centres unmarked) | -4.13%
32 | N#Cc1ccc(CN2C=NS(=O)(=O)c3ccccc32)cc1 | 2.19%
33 | Cc1cc(C(=O)NNC(=S)NCC(C)C)no1 | 7.44%
34 | Cc1cccn2c(=O)c3cc(C(=O)NCc4cccnc4)c(=N)n(C(C)C)c3nc12 | -67.3%
35 | COc1ccc(NC(=O)N(Cc2cccs2)Cc2cc3cc4c(cc3[nH]c2=O)OCO4)cc1 | 6%
36 | Cn1c(O)c(C=Nc2ccccc2-c2ccccc2)c(=O)n(C)c1=O | 16.4%
37 | Cc1nc2ccccc2c(=O)n1NC(=O)COc1ccccc1 | 5.37%
38 | c1ccc2cc(CN3CCOCC3)ccc2c1 | 10.9%
39 | CC[C@H](C)[C@@H](C(=O)NCCCCCCCCCCC(=O)N1CCNCC1)n1cc(CCCCN=C(N)N)nn1 | 13.5%
40 | COc1ccc(/C=N/NC(=O)c2ccccc2O)cc1COc1ccccn1 | 2.06%
41 | O=C(N/N=C/c1cccs1)c1cc(-c2ccncc2)nc2ccccc12 | 18.6%
42 | COc1ccc(C2C(C(=O)Nc3ccccc3)=C(C)N=C3SCC(=O)N32)cc1 (centres unmarked) | 4.83%
43 | Cc1onc(-c2ccccc2Cl)c1C(=O)OCC(=O)Nc1cccc(S(=O)(=O)N(C)C)c1 | 7.33%
44 | CCOC(=O)N1CCN(c2cc(N)c([N+](=O)[O-])cc2F)CC1 | 0.288%
